The supplement of paper PMC8728848
Some of the results follow.

What was measured:
Assay in all cases: glycan array binding signal (z-score within array); higher = stronger binding
Conditions in all cases: glycan notation: IUPAC condensed, linker removed; mutation: H59Q
[1] = molecular target: Gal6S(b1-4)Glc
Outline: (§1)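 Columns mapping to the same glycan were averaged after glycan names were converted to IUPAC-condensed notation. The data come from 3228 arrays in the Consortium for Functional Glycomics database, limited to those with an available protein sequence. Binding is reported as a within-array Z-score averaged across arrays of one protein sequence and across linkers.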

[2] = molecular target: Gal6S(b1-4)Glc6S
Outline: as §1

[3] = molecular target: Gal6S(b1-4)GlcNAc
Outline: as §1

[4] = molecular target: Gal6S(b1-4)GlcNAc6S
Outline: as §1

[5] = molecular target: GalNAc(a1-3)Gal
Outline: as §1

[6] = molecular target: GalNAc(a1-3)GalNAc
Outline: as §1

[7] = molecular target: GalNAc(a1-3)GalNAc(b1-3)Gal(a1-4)Gal(b1-4)Glc
Outline: as §1

[8] = molecular target: GalNAc(a1-3)GalNAc(b1-3)Gal(a1-4)Gal(b1-4)GlcNAc
Outline: as §1

[9] = molecular target: GalNAc(b1-3)Gal
Outline: as §1

[10] = molecular target: GalNAc(b1-3)Gal(a1-4)Gal(b1-4)GlcNAc
Outline: as §1

[11] = molecular target: GalNAc(b1-3)Gal(a1-4)Gal(b1-4)GlcNAc(b1-3)Gal(b1-4)Glc
Outline: as §1

[12] = molecular target: GalNAc(b1-3)Gal(a1-6)Gal(b1-4)Glc
Outline: as §1

[13] = molecular target: GalNAc(b1-3)GalNAc
Outline: as §1

[14] = molecular target: GalNAc(b1-3)GlcNAc
Outline: as §1

[15] = molecular target: GalNAc(b1-4)Gal(b1-4)Glc
Outline: as §1

[16] = molecular target: GalNAc(b1-4)GlcNAc
Outline: as §1

[17] = molecular target: GalNAc(b1-4)GlcNAc(b1-2)Man
Outline: as §1

[18] = molecular target: GalNAc(b1-4)GlcNAc(b1-2)Man(a1-3)[GalNAc(b1-4)GlcNAc(b1-2)Man(a1-6)]Man(b1-4)GlcNAc(b1-4)GlcNAc
Outline: as §1

[19] = molecular target: GalNAc(b1-4)GlcNAc(b1-3)GalNAc(b1-4)GlcNAc
Outline: as §1

[20] = molecular target: GalNAc(b1-4)GlcNAc6S
Outline: as §1

[21] = molecular target: GalNAc(b1-6)GalNAc
Outline: as §1

[22] = molecular target: GalNAc3S(b1-4)GlcNAc
Outline: as §1

[23] = molecular target: GalNAc3S(b1-4)GlcNAc3S
Outline: as §1

[24] = molecular target: GalNAc3S(b1-4)[Fuc(a1-3)]GlcNAc
Outline: as §1

[25] = molecular target: GalNAc4S6S(b1-4)GlcNAc
Outline: as §1

[26] = molecular target: GalNAc6S(b1-4)GlcNAc
Outline: as §1

[27] = molecular target: Glc(a1-4)Glc
Outline: as §1

[28] = molecular target: Glc(a1-4)Glc(a1-4)Glc(a1-4)Glc
Outline: as §1

[29] = molecular target: Glc(a1-6)Glc(a1-6)Glc
Outline: as §1

[30] = molecular target: Glc(a1-6)Glc(a1-6)Glc(a1-6)Glc
Outline: as §1

[31] = molecular target: Glc(b1-4)Glc
Outline: as §1

[32] = molecular target: Glc(b1-6)Glc
Outline: as §1

[33] = molecular target: GlcA(b1-3)Gal
Outline: as §1

[34] = molecular target: GlcA(b1-3)GlcNAc
Outline: as §1

[35] = molecular target: GlcA(b1-6)Gal
Outline: as §1

[36] = molecular target: GlcA3S(b1-3)Gal(b1-4)GlcNAc(b1-2)Man
Outline: as §1

[37] = molecular target: GlcA3S(b1-3)Gal(b1-4)GlcNAc(b1-3)Gal(b1-4)Glc
Outline: as §1

[38] = molecular target: GlcNAc(a1-3)Gal(b1-4)GlcNAc
Outline: as §1

[39] = molecular target: GlcNAc(a1-4)Gal(b1-3)GlcNAc
Outline: as §1

[40] = molecular target: GlcNAc(a1-4)Gal(b1-4)GalNAc
Outline: as §1

[41] = molecular target: GlcNAc(a1-4)Gal(b1-4)GlcNAc
Outline: as §1

[42] = molecular target: GlcNAc(a1-4)Gal(b1-4)GlcNAc(b1-3)Gal(b1-4)Glc
Outline: as §1

[43] = molecular target: GlcNAc(a1-4)Gal(b1-4)GlcNAc(b1-3)Gal(b1-4)GlcNAc
Outline: as §1

[44] = molecular target: GlcNAc(a1-4)Gal(b1-4)GlcNAc(b1-3)Gal(b1-4)GlcNAc(b1-3)Gal(b1-4)GlcNAc
Outline: as §1

[45] = molecular target: GlcNAc(a1-4)Gal(b1-4)GlcNAc(b1-3)Gal(b1-4)[Fuc(a1-3)]GlcNAc(b1-3)Gal(b1-4)[Fuc(a1-3)]GlcNAc
Outline: as §1

B1: rAAL-H59Q (Agrocybe aegerita), Q6WY08 (protein)
chain: MQGVNIYNISAGTSVDLAAPVTTGDIVTFFSSALNLNAGAGNPNNTTLNLFAENGAYLLQIAFRLQENVIIFNSRQPDGPWLVEQRVSDVANQFAGIDGKAMVTVFDHGDKYQVVINEKTVIQYTKQISGLTLSLSYNATEETSIFSTVVEAVTYTGLALEHHHHHH
In the case of B1, the “glycan array binding signal (z-score)” value [1] is reported as -0.105, the “glycan array binding signal (z-score)” value [2] is reported as -0.085 and the “glycan array binding signal (z-score)” value [3] is reported as -0.086. The “glycan array binding signal (z-score)” value [4] was -0.14, the “glycan array binding signal (z-score)” value [5] was -0.082 and the “glycan array binding signal (z-score)” value [6] was -0.015. The “glycan array binding signal (z-score)” value [7] was -0.081, the “glycan array binding signal (z-score)” value [8] was -0.072 and the “glycan array binding signal (z-score)” value [9] was -0.125. For the same binder, the “glycan array binding signal (z-score)” value [10] was -0.012, the “glycan array binding signal (z-score)” value [11] was 0.002 and the “glycan array binding signal (z-score)” value [12] was -0.152. For the same binder, the “glycan array binding signal (z-score)” value [13] was -0.063, the “glycan array binding signal (z-score)” value [14] was -0.014 and the “glycan array binding signal (z-score)” value [15] was -0.071. For the same binder, the “glycan array binding signal (z-score)” value [16] was -0.054, the “glycan array binding signal (z-score)” value [17] was -0.195 and the “glycan array binding signal (z-score)” value [18] was -0.078. The “glycan array binding signal (z-score)” value [19] was -0.077, the “glycan array binding signal (z-score)” value [20] was -0.023 and the “glycan array binding signal (z-score)” value [21] was -0.041. The “glycan array binding signal (z-score)” value [22] was -0.111, the “glycan array binding signal (z-score)” value [23] was -0.041 and the “glycan array binding signal (z-score)” value [24] was -0.094. For the same binder, the “glycan array binding signal (z-score)” value [25] was -0.005, the “glycan array binding signal (z-score)” value [26] was -0.008 and the “glycan array binding signal (z-score)” value [27] was -0.011. The “glycan array binding signal (z-score)” value [28] was -0.102, the “glycan array binding signal (z-score)” value [29] was -0.066 and the “glycan array binding signal (z-score)” value [30] was -0.039. For the same binder, the “glycan array binding signal (z-score)” value [31] was -0.121, the “glycan array binding signal (z-score)” value [32] was -0.131 and the “glycan array binding signal (z-score)” value [33] was -0.027. The “glycan array binding signal (z-score)” value [34] was -0.087, the “glycan array binding signal (z-score)” value [35] was -0.064 and the “glycan array binding signal (z-score)” value [36] was 19.6. For the same binder, the “glycan array binding signal (z-score)” value [37] was 12.1, the “glycan array binding signal (z-score)” value [38] was -0.114 and the “glycan array binding signal (z-score)” value [39] was -0.085. For the same binder, the “glycan array binding signal (z-score)” value [40] was -0.03, the “glycan array binding signal (z-score)” value [41] was -0.055 and the “glycan array binding signal (z-score)” value [42] was -0.059. For the same binder, the “glycan array binding signal (z-score)” value [43] was -0.07, the “glycan array binding signal (z-score)” value [44] was -0.06 and the “glycan array binding signal (z-score)” value [45] was -0.048.
